Measured values reported in PubChem BioAssay AID2451 (National Center for Advancing Translational Sciences (NCATS), 2010).
The campaign covered roughly 290,000 compounds. About 2,100 (0.72%) were called active. This list was built around the results that the source calls inconclusive (neither active nor inactive); the mix of calls is not that of the screen. The call rests on the fitted dose curve; in most records, active means well fitted inhibition curve with a large enough effect; inconclusive means small, poorly fitted or top-dose-only effect, or effect the other way; inactive means flat fitted curve, though single readings scatter. Where the call is inconclusive, the potency comes from a doubtful curve fit.

Target: Fructose-bisphosphate aldolase (Giardia intestinalis (strain ATCC 50803 / WB clone C6)) (UniProt A8B2U2)
Experiment: qHTS Assay for Inhibitors of Fructose-1,6-bisphosphate Aldolase from Giardia Lamblia; further: nearly all actives have a fitted effect of over 55% in size
Conditions: purified Giardia FBPA; series mostly up to 59.6 µM
Summary of the method: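 Giardia FBPA (40 nM reagent) was preincubated 10 min at RT with compound (up to 57.5 uM final), then substrate plus GAPDH/TPI/NAD/arsenate coupling system with diaphorase/resazurin was added; resorufin fluorescence (525/598 nm) was read after 20 min.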
Potency means the concentration at half of the fitted maximal effect; tags describe the fitted curve by direction and shape.

UniProt A8B2U2, sequence (A8B2U2 whole entry, looked up): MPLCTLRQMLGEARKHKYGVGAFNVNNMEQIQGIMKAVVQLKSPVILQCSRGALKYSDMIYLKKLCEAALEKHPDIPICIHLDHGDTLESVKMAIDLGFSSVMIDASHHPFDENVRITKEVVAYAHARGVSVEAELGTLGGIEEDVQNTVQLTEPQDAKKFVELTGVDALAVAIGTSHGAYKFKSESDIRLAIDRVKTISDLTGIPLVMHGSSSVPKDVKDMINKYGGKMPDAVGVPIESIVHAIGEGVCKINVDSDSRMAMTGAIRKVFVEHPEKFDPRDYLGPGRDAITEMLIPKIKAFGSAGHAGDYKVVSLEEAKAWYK

Row | Compound | Potency
1 | CC(=O)C1=C(C)NC(SCC(=O)c2ccc(Cl)cc2Cl)=C(C#N)C1c1ccco1 (centres undefined) | inconclusive: 15.8 µM [inhibitor, partial curve]
2 | O=C(O)c1ccccc1/C=N/n1c(C2CCCCC2)n[nH]c1=S | inconclusive: 28.2 µM [inhibitor, partial curve]
3 | COc1ccnc(CSC(N)=Nc2cccc(C(F)(F)F)c2)c1 | inconclusive: 17.7 µM [inhibitor, single point]
4 | O=C(N/N=C/c1ccc[nH]1)c1ccc(O)cc1 | inactive
5 | CCN1CCC2(CC1)N=C(c1ccc(F)cc1)C(=S)N2 | active: 12.6 µM
6 | Cc1ccc(Nc2nc(N)nc(CSc3ncccn3)n2)cc1 | inactive
7 | O=C(NCCn1cc(SCc2ccc(F)cc2)c2ccccc21)c1c(F)cccc1F | inconclusive: 19.9 µM [inhibitor, single point]
8 | Cn1nc(C(=O)OCc2ccccc2F)c2ccccc2c1=O | inactive
9 | CCOc1ccc(NC(=O)C2Cc3ccccc3CN2S(=O)(=O)CC)cc1 (centres undefined) | inactive
10 | Oc1ccc2c(c1)OCC1(O)Cc3cc(O)c(O)cc3C21 (centres undefined) | active: 17.7 µM
11 | CC(C)N1CCc2c(sc(NC(=O)Cc3ccccc3)c2C(N)=O)C1 | active: 12.6 µM
12 | O=C1c2ccccc2C(=O)c2[nH]cnc21 | inconclusive: 7.92 µM [inhibitor, partial curve]
13 | CC1CCN(CC(=O)Nc2ccccc2-c2ccccc2)CC1 | inactive
14 | CCOC(=O)c1ccccc1NC(=O)N1CCn2c(C)ccc2C1CC (centres undefined) | inconclusive: 15.8 µM [inhibitor, partial curve]
15 | Cc1ccnc(NC(=O)c2ccc(Cl)s2)c1 | inactive
16 | CCOc1ccccc1OCCCC(=O)Nc1ccc(OC)nc1 | inconclusive: 19.9 µM [inhibitor, partial curve]
17 | CN(CCOc1ccccc1)CC(O)COCc1ccccc1F (centres undefined) | inconclusive: 25.1 µM [inhibitor, single point]
18 | c1ccc(N2CCN(Cc3nc4ccccc4[nH]3)CC2)nc1 | inconclusive: 17.7 µM [inhibitor, single point]
19 | O=C(O)CN1C(=O)/C(=C\C(Br)=C\c2ccccc2)SC1=S | inconclusive: 17.8 µM [inhibitor, partial curve]
20 | COc1ccc(CN(C(=S)Nc2ccccc2)C2CC(=O)N(c3ccccc3)C2=O)cc1 (centres undefined) | inconclusive: 7.06 µM [activator, single point]
21 | CCSc1nnc(NC(=O)c2ccccn2)s1 | inconclusive: 7.06 µM [inhibitor, single point]
22 | CCOc1cc(C(=S)N2CCOCC2)ccc1OS(=O)(=O)c1ccccc1 | inactive
23 | COc1ccc(CC(=O)NC(=S)NNC(=O)COc2c(C)cccc2C)cc1 | inconclusive: 15.8 µM [activator, partial curve]
24 | C=CCOc1ccccc1CN1CCCCCC1 | active: 17.8 µM
25 | OCCN(Cc1ccccc1)Cc1cccc(Cl)c1Cl | inconclusive: 15.8 µM [inhibitor, partial curve]

Row | Compound | Potency
26 | Oc1ccc(-c2csc(Nc3ncccn3)n2)cc1O | inconclusive: 25.1 µM [inhibitor, partial curve]
27 | Nc1nc2sc3c(c2cc1C(=O)N1CCOCC1)CCCC3 | inconclusive: 19.9 µM [inhibitor, partial curve]
28 | O=C(O)CC(NC(=O)c1sc2ccccc2c1Cl)c1ccc(OC2CCCC2)cc1 (centres undefined) | inconclusive: 15.8 µM [activator, single point]
29 | CCN1CCN(CCOc2ccc(Br)cc2C)CC1 | inconclusive: 19.9 µM [inhibitor, partial curve]
30 | CN1C(=O)/C(=C/c2cn(CC(=O)NCc3ccco3)c3ccccc23)NC1=S | inconclusive: 17.7 µM [inhibitor, single point]
31 | CC(=O)Nc1sc(C)c(C)c1C(=O)OCCOc1ccccc1 | inactive
32 | CN(C)S(=O)(=O)c1ccc(Cl)c(NC(=O)COC(=O)/C=C/c2ccc(S(=O)(=O)N3CCOCC3)cc2)c1 | inactive
33 | O=S(=O)(/N=C/c1c(O)ccc2ccccc12)c1cccs1 | inconclusive: 22.3 µM [inhibitor, partial curve]
34 | c1cc(C(c2nnnn2C2CCCC2)N2CCOCC2)ccn1 (centres undefined) | inactive
35 | Cc1nc(-c2nc(-c3c(C(=O)NN)noc3C)cs2)cs1 | inactive
36 | CN1CCN(C2=NC(=O)/C(=C/c3ccccc3OS(=O)(=O)c3ccccc3)S2)CC1 | inconclusive: 31.5 µM [inhibitor, single point]
37 | Cc1cc(NC(=O)C2CCCN(S(=O)(=O)c3cnc[nH]3)C2)ccc1Br (centres undefined) | inactive
38 | COc1ccccc1NC(=O)N1CCN(Cc2ccc3c(c2)OCO3)CC1 | inconclusive: 17.7 µM [inhibitor, partial curve]
39 | Clc1ccccc1OCCN1CCC(Cc2ccccc2)CC1 | inconclusive: 22.3 µM [inhibitor, partial curve]
40 | CCN(CC)CCOc1cc2c(nn1)Oc1ccccc1N2C | inactive
41 | O=[N+]([O-])c1ccccc1CN1CCN(Cc2c[nH]c3ccccc23)CC1 | active: 19.9 µM
42 | COC(=O)CNc1n[nH]c(=S)[nH]c1=O | inconclusive: 7.06 µM [inhibitor, full curve]
43 | Cc1cc(C)nc(NS(=O)(=O)c2ccc(NC(=O)c3ccccc3C)cc2)n1 | inconclusive: 25.1 µM [inhibitor, partial curve]
44 | Cc1c2c(c(O)c3c(O)cccc13)C(=O)O[C@H]2C1C(N(C)C)C(O)=C(C(N)=O)C(=O)[C@H]1O (some centres undefined) | active: 9.98 µM
45 | OC(C#CCN1CCCC1)(c1ccccc1)c1cccnc1 (centres undefined) | inconclusive: 15.8 µM [inhibitor, partial curve]
46 | Brc1ccc(Cn2c(-c3cncs3)nc3ccccc32)cc1 | inactive
47 | COc1ccc2[nH]c(=S)[nH]c2c1 | active: 7.08 µM
48 | CNC[C@H](CC1CCCCC1)NC[C@H](Cc1ccccc1)NCCC12CC3CC(CC(C3)C1)C2 | inconclusive: 28.2 µM [activator, single point]
49 | Cc1ccc(S(=O)(=O)Nc2nc(C)c(NC(=O)OCCCl)s2)cc1 | inconclusive: 17.7 µM [inhibitor, partial curve]
